# Measured values: PubChem BioAssay AID652104 (National Center for Advancing Translational Sciences (NCATS), 2013)
# The whole screen tested about 410,000 compounds, of which about 7,200 (1.8%) were called active. Inconclusive means that the source gave no clear call. Such entries were picked first, then a sample of the others. Calls follow the shape of the dose curve; as a rule, active = well fitted activation curve with a large enough effect; inconclusive = small, poorly fitted or top-dose-only effect, or another doubt; inactive = no such curve, though single readings can be large or run the other way. No potency is given beside an inconclusive call; the fits are too rough.
# Assay: qHTS of TDP-43 Inhibitors; also: nearly all actives have a fitted effect of over 50% in size; as to growth rescue (activation): % of control where 0% means no effect
# Conditions: TDP-43 expressing yeast growth rescue, BacTiter-Glo, 24 h; growth rescue (activation): at 46.1 µM (top of the series) unless noted
# Procedure, shortened: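 Yeast expressing TDP-43 (pregrown in raffinose, seeded at OD600=0.02 in galactose medium) exposed to compounds 24 hr at 30 deg C. Growth read by BacTiter-Glo luminescence; rescue of toxicity appears as increased signal.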
# Potency is read from the fitted curve at half-maximal effect; tags tell the direction and shape of the fitted curve.
Structure (SMILES),Potency,growth rescue (activation)
CCc1cc2c(-c3ccccc3)cc(=O)oc2cc1OCC(C)=O,"inconclusive [activator, single point]",
O=[N+]([O-])c1cccc(N/N=C/c2cccc(O)c2O)c1,active: 12.6 µM,
CC(=O)c1cccc(-c2ccnc3c2CC(C(=O)Nc2ccc(F)c(Cl)c2)O3)c1 (centres undefined),"inconclusive [activator, single point]",
Cc1ccc(CNc2nc3ccc(Cl)cc3n3nnnc23)cc1,inactive,
COC(=O)CC1Oc2ccc(F)cc2-n2cc(-c3ccc(C)cc3)nc21 (centres undefined),inactive,
O=C(OCn1ncc(Br)c(Br)c1=O)c1ccc(F)cc1,,inconclusive: -88.3% [activator]
O=C(COC(=O)c1nc(Cl)ccc1Cl)Nc1ccc2c(c1)OCO2,"inconclusive [activator, single point]",
Cc1c(C)n(CC(O)CN2C(=O)c3ccccc3S2(=O)=O)c2ccccc12 (centres undefined),"inconclusive [activator, single point]",
COc1cc(OC)c(NS(=O)(=O)c2c(C(=O)N3CCCCCC3)c(C)n(C)c2C)cc1Cl,inactive,
O=C(c1ccc(Br)cc1)N1CCCc2ccccc21,"inconclusive [activator, partial curve]",
Cc1noc(C)c1COc1cccc(C(=O)N2CCc3ccccc32)c1,"inconclusive [activator, partial curve]",
Cc1ccc(C)c(NC(=O)C(Cc2ccccc2)n2cccc2)c1 (centres undefined),"inconclusive [activator, partial curve]",
N#Cc1c(/N=C/N2CCOCC2)sc2c1CCCCC2,"inconclusive [activator, partial curve]",
COc1ccc(SCCN2CC[C@@H](C)CCC2=O)cc1,"inconclusive [activator, single point]",
Brc1ccc(Nc2c3c(nc4nncn24)CCC3)cc1,active: 12.6 µM,
CCCOC(=O)c1ccc(Oc2c(-c3ccc(OC)cc3O)n[nH]c2C)cc1,"inconclusive [activator, single point]",
CC(NC(=S)Nc1ccccc1)C1COc2ccccc2O1 (centres undefined),active: 12.6 µM,
COc1ccc(N2CCN(C(=O)COc3ccccc3C#N)CC2)cc1,"inconclusive [activator, single point]",
Cc1cc(NC(=O)Nc2cccc(Cl)c2)no1,"inconclusive [activator, full curve, poor fit]",
CCCN(CCC)C(=O)CSc1c2c(nc3ccc(Cl)cc13)CCCC2,active: 20 µM,
CC(=O)[C@]1(O)Cc2c(O)c3c(c(O)c2[C@@H](O[C@H]2C[C@H](N)[C@H](O)[C@H](C)O2)C1)C(=O)c1ccccc1C3=O,"inconclusive [activator, partial curve]",
CCN(CC)C(=O)CSc1ncnc2sc(-c3ccccc3)cc12,"inconclusive [activator, partial curve]",
O=C(c1ccc(Cl)cc1)c1oc2ccccc2c1CS(=O)c1ccc(Cl)cc1 (centres undefined),inactive,

Structure (SMILES),Potency,growth rescue (activation)
COc1ccccc1CNC(=O)CCCCn1c(=O)c2ccccc2n(CC(=O)Nc2c(C)cc(C)cc2C)c1=O,"inconclusive [activator, partial curve, poor fit]",
O=c1cnc2ccccc2n1Cc1ccc(Br)cc1,"inconclusive [activator, partial curve]",
COc1ccc(-c2cc(=Nc3ccc(C)cc3)c3ccccc3o2)cc1,"inconclusive [activator, single point]",
Cc1ccccc1NC(=O)c1c(C)[nH]c(=S)c(C#N)c1-c1ccco1,inactive,
CCCCNc1oc(-c2ccc(COc3ccccc3C)o2)nc1C#N,inactive,
CC1(C)Cc2cccc(OCC(=O)NCc3ccc(F)cc3)c2O1,"inconclusive [activator, single point]",
CCOc1ccc2nc(Cl)c(/C=C/C(=O)c3ccco3)cc2c1,"inconclusive [activator, full curve]",
CCOC(=O)c1cc(-c2ccccc2)n(CCC(=O)NCCc2cccc(C)c2)c1C,"inconclusive [activator, partial curve, poor fit]",
COc1ccc(S(=O)(=O)NCCc2sc3nc(-c4ccc(C)cc4)nn3c2C)cc1C,"inconclusive [activator, single point]",
CNc1nc(Cl)c(SC)c(NCc2cccc(OC)c2)n1,,inconclusive: 43.8% [activator]
O=C(O)c1ccc(Nc2nc(-c3ccccc3)cs2)cc1,inactive,
Cc1nn(Cc2noc(C(=O)NCc3ccc4c(c3)OCO4)n2)c(C)c1Br,"inconclusive [activator, partial curve]",
Cc1cc(C(=O)NNC(=S)NC(C)c2ccccc2)cs1 (centres undefined),"inconclusive [activator, partial curve]",
O=C(NCc1ccc(F)cc1)c1cc2cccc3c2n1CCS3,active: 14.1 µM,
CCc1ccc(NC(=O)C2=C(C)C(=O)OC23CCCCC3)cc1,"inconclusive [activator, partial curve]",
COC(=O)c1c(NC(=O)c2ccc(OC(C)C)cc2)sc2c1CC(C)(C)NC2(C)C,"inconclusive [activator, partial curve]",
Cc1ccc(NC(=O)C2CCC(CNS(=O)(=O)c3ccc4c(c3)CCCC(=O)N4)CC2)cc1F (centres undefined),inactive,
CCOC(=O)C1=NNC(C(=O)c2ccc(Cl)cc2)C1c1ccc(OC)cc1 (centres undefined),"inconclusive [activator, single point]",
O=C(O)c1ccc(N(c2ccccc2)c2ccccc2)cc1,"inconclusive [activator, single point]",
Cc1[nH]c2ccccc2c1CCNC(=O)c1c(N)no[n+]1[O-],"inconclusive [activator, single point]",
CC(C)C[C@H](N)c1nnc(S(=O)(=O)Cc2ccc(F)cc2)o1,"inconclusive [activator, partial curve]",
Cc1cc(Br)c(OCc2ccc(C(=O)N/N=C3\CC4CC=CC34)cc2)c(Br)c1 (centres undefined),active: 25.1 µM,
N#Cc1nc(-c2ccccc2Cl)oc1NCc1ccco1,"inconclusive [activator, single point]",

Structure (SMILES),Potency,growth rescue (activation)
O=C1OCCC1Sc1nnc(-c2ccc(F)cc2)n1Cc1ccccc1 (centres undefined),inactive,
Cc1cccc(CSCCNC(=O)COc2ccc(Cl)cc2)c1,"inconclusive [activator, partial curve]",
O=C(COc1ccc(Cl)cc1)Nc1ccc2c(c1)OCO2,"inconclusive [activator, partial curve]",
CCCCOC(=O)c1cc(=O)[nH]c2ccc(C)cc12,"inconclusive [activator, partial curve]",
CC(C)COC(=O)N(C)C[C@H]1OCc2cn(nn2)CCCC(=O)N([C@H](C)CO)C[C@@H]1C,"inconclusive [activator, partial curve]",
CCOC(=O)c1[nH]c2ccc(OCC)cc2c1NC(=O)CN1CCC2(CC1)OCCO2,inactive,
CC(=O)Nc1ccc2c(c1)Cc1c(F)cccc1-2,"inconclusive [activator, single point]",
CN1C[C@@H]2C(c3ccc(C(F)(F)F)cc3)C3(c4cccnc4)CC2(C3)[C@H]1c1ccccc1 (some centres undefined),inactive,
CCN(C(=O)CCc1nc(-c2ccc(C)cc2)no1)c1cccc(Cl)c1,"inconclusive [activator, partial curve]",
CCOC(=O)N1CCC(N2Cc3cccc(C(=O)Nc4ccc(CC)cc4)c3C2=O)CC1,active: 25.1 µM,
Cc1ccccc1C(=O)N1CCN(c2ncnc3c2cnn3-c2ccccc2)CC1,active: 14.1 µM,
O=C(COC(=O)c1ccc(Br)o1)Nc1nc2ccccc2s1,"inconclusive [activator, partial curve]",
N#Cc1c(N2CCOCC2)nc(-c2ccco2)c2c1CCCC2,inactive,
CCOC(=O)CSc1nnc(-c2ccco2)n1-c1ccc(C)cc1,"inconclusive [activator, single point]",
CC(=O)NC(CCS(C)(=O)=O)C(=O)Nc1cccc(Cl)c1Cl (centres undefined),"inconclusive [activator, full curve, poor fit]",
COc1ccccc1-c1cnc2c(c1)C(=O)N([C@@H](C)CO)C[C@@H](C)[C@H](CN(C)C(=O)c1cccnc1)O2,"inconclusive [activator, single point]",
CC1=C(C(=O)N2CCOCC2)CC(CC(=O)NC2CCCC2)C(=O)N1Cc1ccc(C(C)(C)C)cc1 (centres undefined),"inconclusive [activator, partial curve, poor fit]",
COc1ccc2c(-c3cnc(N4CCOCC4)nc3)c(-c3ccc(S(C)(=O)=O)cc3)sc2c1,"inconclusive [activator, partial curve]",
COc1ccccc1CNC(=O)C(Cc1c[nH]c2ccccc12)NC(=O)OCc1ccccc1 (centres undefined),inactive,
CC1CN(CCS(=O)(=O)c2cc(Cl)ccc2Cl)CC(C)O1 (centres undefined),"inconclusive [activator, single point]",
CC(=O)Nc1cccc(-c2ccnc3c2CC(C)(C(=O)NCC2CC2)O3)c1 (centres undefined),inactive,
COc1cccc(Cn2c(Oc3cccc(C)c3)nc3c2c(=O)n(C)c(=O)n3C)c1,"inconclusive [activator, single point]",
CCCS(=O)(=O)c1c(S(=O)(=O)CCC)c2cc(CC)ccn2c1C(=O)OC,"inconclusive [activator, single point]",
